Measured values: PubChem BioAssay AID1963576 (National Center for Advancing Translational Sciences (NCATS), 2024)
In all, about 46,000 compounds went through this assay and about 60 (0.1%) were called active. Inconclusive results (about 3%) are left out. Calls come from the whole dose curve; as a rule, active = well fitted inhibition curve with a large enough effect; inconclusive = small, poorly fitted or top-dose-only effect; inactive = no such curve, though single readings can be large or run the other way. Some of the results follow.

Experiment: Primary qHTS assay for Inhibitors of ovarian cancer metastasis using an organotypic tumor microenvironment (TME) model.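 For activity change, negative = inhibition: plate controls were DMSO wells for no effect and tomatine positive control wells for full effect.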 Note: nearly all actives have a fitted effect of over 65% in size.
Conditions: SKOV3ip1-GFP adhesion/invasion on 3D omental model, fluorescence; series mostly up to 45.8 µM; activity change, negative = inhibition: at the top concentration
Outline: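 qHTS, 4-pt dose (0.36-46 umol/L); SKOV3ip1-GFP, 1,200 cells/well, no FBS; primary omental fibroblast/mesothelial co-culture 48 h pre-grown; 2 h RT + 16 h 37 C; PBS wash, 4% PFA; GFP count 488/509 nm.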

Row | SMILES | activity change, negative = inhibition | outcome
1 | O=C(C1COc2ccccc2O1)N(Cc1cccnc1)c1nc2ccc(F)cc2s1 (stereo not given) | inactive: -1.53% | –
2 | CCN(C(=O)Cn1c(SCc2ccccc2F)nc2cccnc21)c1ccccc1 | inactive: -3.77% | –
3 | CCOC(=O)c1sc(N2C(=O)c3oc4ccc(F)cc4c(=O)c3C2c2cccc(OC)c2)nc1C (stereo not given) | inactive: 4.75% | –
4 | CCOc1ccc2ncc3c(-c4ccccc4)nn(CC(=O)Nc4cccc(F)c4)c3c2c1 | inactive: 5.26% | –
5 | COc1ccc(-n2c(-c3ccc(F)cc3)cn3c4c(=O)n(C)c(=O)n(C)c4nc23)cc1 | – | inactive
6 | O=C(CSc1nc(-c2ccco2)nc2cc(=O)[nH]n12)Nc1ccccc1Cl | inactive: -8.5% | –
7 | O=C(Cn1c(=O)oc2ccccc21)NCc1ccccc1Cl | inactive: 30.4% | –
8 | CCCn1cc(S(=O)(=O)c2cccc(Cl)c2)c(=O)c2cc(F)c(N3CCN(CC)CC3)cc21 | inactive: 5.91% | –
9 | COCCCNC(=O)C1CCN(c2nnc(-n3cccc3CNc3ccc(C)cc3)s2)CC1 | inactive: -1.67% | –
10 | COc1cc2[nH]c(=O)n(CCCC(=O)NCc3ccccc3Cl)c(=O)c2cc1OC | – | inactive
11 | O=C(CSc1nc2c(c(=O)[nH]1)CCCC2)Nc1cccc(O)c1 | – | inactive
12 | COc1ccccc1CNC(=O)Cn1c(=O)oc2ccccc21 | inactive: 1.72% | –
13 | COc1ccc(S(=O)(=O)N2Cc3ccccc3CC2C(=O)Nc2cccc(C)c2)cc1OC (stereo not given) | inactive: 0.693% | –
14 | COc1cccc(CNC(=O)Cn2cc3c(n2)-c2c(oc(C(=O)N4CCOCC4)c2C)CC3)c1 | – | inactive
15 | CON=C(C(=O)N[C@@H]1C(=O)N2C(C(=O)O)=C(CSC(=O)c3ccco3)CS[C@H]12)c1csc(N)n1 | inactive: 18.5% | –
16 | COc1ccccc1CNc1nc(-c2ccco2)nn1C(=O)c1ccccc1[N+](=O)[O-] | inactive: -7.33% | –
17 | CCCCn1c(CCNC(=O)c2ccc(F)cc2)nc2ccccc21 | inactive: 2.77% | –
18 | COCCCNC(=O)Cn1c(=O)n(-c2cccc(C)c2)c(=O)c2c3c(sc21)CN(C(C)=O)CC3 | inactive: 1.27% | –
19 | O=C(CN1C(=O)C2CCCCN2c2ccc(C(=O)N3CCCC3)cc21)NCc1ccccc1 (stereo not given) | inactive: 5.61% | –
20 | COC(=O)c1ccccc1NC(=O)CSc1nc2sc3c(c2c(=O)[nH]1)CCCC3 | – | inactive
21 | CCc1cccc(C)c1NC(=O)C1CCCN(S(=O)(=O)c2cccc3nsnc23)C1 (stereo not given) | inactive: -3.29% | –
22 | CC1(C)S[C@H]2[C@H](NC(=O)[C@@H](N)c3ccc(O)cc3)C(=O)N2[C@@H]1C(=O)O | inactive: 3.52% | –
23 | CN(C)c1ccc(CNc2nc(-c3ccco3)nn2S(=O)(=O)c2ccc(Cl)cc2)cc1 | inactive: 1.77% | –
24 | Cc1cc(=O)n2c(C(=O)Nc3ccc(C)c(C)c3)c(C(=O)Nc3ccccc3)sc2n1 | – | inactive
25 | COc1ccc(CNC(=O)c2cc3c(=O)n(Cc4cccs4)ccc3nc2C)cc1 | inactive: -1.39% | –
